Reference: publication PMC11500415, “Chemical inhibition of stomatal differentiation by perturbation of the master-regulatory bHLH heterodimer via an ACT-Like domain” (Nature Communications, 2024)
These are yes or no findings as the source states them, for the method shown. For some of these results: Binding seen in cells or lysates may run through a third protein. Some entries that bind do so weakly or less than the wild type. For some of these results: Where a sequence is shown, tags or fusion partners need not be part of it.

Key:
[1] = target: T1, MUTE, yeast two-hybrid bait (DB fusion) (A. thaliana) (UniProt Q9M8K6); test: two-hybrid; Matchmaker system, yeast AH109, bait pGBKT7 and prey pGADT7; 10-fold serial dilutions on selection media with 1 mM 3-AT, with or without 50 µM SIM3* (7)
T1 sequence: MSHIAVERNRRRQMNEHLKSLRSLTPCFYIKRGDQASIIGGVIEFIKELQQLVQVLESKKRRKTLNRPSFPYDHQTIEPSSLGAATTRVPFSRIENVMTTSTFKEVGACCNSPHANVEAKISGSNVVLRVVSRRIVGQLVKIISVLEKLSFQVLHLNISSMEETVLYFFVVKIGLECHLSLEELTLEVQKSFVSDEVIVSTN

[2] = target: T2, SPCH-nYFP (Arabidopsis thaliana) (UniProt Q700C7); test: split reporter; ratiometric BiFC in N. benthamiana leaves, split EYFP, H2B-mScarlet-I3 as reference; leaf discs in 100 µM Stomidazolone for 1 day
T2 sequence: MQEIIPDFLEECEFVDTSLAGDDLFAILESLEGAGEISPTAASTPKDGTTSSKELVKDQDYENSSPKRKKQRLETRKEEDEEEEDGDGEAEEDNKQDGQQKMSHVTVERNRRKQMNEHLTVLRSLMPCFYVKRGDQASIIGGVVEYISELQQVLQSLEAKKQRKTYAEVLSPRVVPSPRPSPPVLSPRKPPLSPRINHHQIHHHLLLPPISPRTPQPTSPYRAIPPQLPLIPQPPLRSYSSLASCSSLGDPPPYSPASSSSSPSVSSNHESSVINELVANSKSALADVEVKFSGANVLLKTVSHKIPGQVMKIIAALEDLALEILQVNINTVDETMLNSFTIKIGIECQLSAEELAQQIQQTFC

[3] = target: T3, FAMA-nYFP (Arabidopsis thaliana) (UniProt Q56YJ8); test: as above
T3 sequence: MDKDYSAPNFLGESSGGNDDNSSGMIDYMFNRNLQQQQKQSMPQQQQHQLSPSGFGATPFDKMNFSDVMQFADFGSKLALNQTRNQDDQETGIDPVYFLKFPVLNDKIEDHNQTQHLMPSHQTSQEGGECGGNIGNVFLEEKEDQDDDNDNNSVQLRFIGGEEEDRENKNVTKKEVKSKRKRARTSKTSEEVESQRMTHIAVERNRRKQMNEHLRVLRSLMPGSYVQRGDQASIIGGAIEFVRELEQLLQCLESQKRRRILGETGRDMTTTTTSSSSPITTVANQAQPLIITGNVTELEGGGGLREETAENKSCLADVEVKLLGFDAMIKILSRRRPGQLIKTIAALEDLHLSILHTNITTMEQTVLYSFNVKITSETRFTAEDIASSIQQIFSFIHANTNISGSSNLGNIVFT

[4] = target: T4, MUTE-nYFP (Arabidopsis thaliana) (UniProt Q9M8K6); test: as above
T4 sequence: T1 sequence

[5] = target: T2, SPCH-nYFP (Arabidopsis thaliana); test: split reporter; ratiometric BiFC in N. benthamiana leaves, split EYFP, H2B-mScarlet-I3 as reference; leaf discs in mock (DMSO)
[6] = target: T3, FAMA-nYFP (Arabidopsis thaliana); test: as above
[7] = target: T4, MUTE-nYFP (Arabidopsis thaliana); test: as above
[8] = target: T5, SPCH-nYFP (A. thaliana) (UniProt Q700C7); test: split reporter; ratiometric BiFC in N. benthamiana leaves, nYFP and cYFP fusions with H2B-mScarlet-I3 as reference; leaf disks treated with 100 µM Stomidazolone for 1 day
T5 sequence: T2 sequence

[9] = target: T6, MUTE-nYFP (A. thaliana) (UniProt Q9M8K6); test: as above
T6 sequence: T1 sequence

[10] = target: T7, FAMA-nYFP (A. thaliana) (UniProt Q56YJ8); test: as above
T7 sequence: T3 sequence

[11] = target: T5, SPCH-nYFP (A. thaliana); test: split reporter; ratiometric BiFC in N. benthamiana leaves, nYFP and cYFP fusions with H2B-mScarlet-I3 as reference; leaf disks in mock (DMSO) or 100 µM Stomidazolone for 1 day
[12] = target: T6, MUTE-nYFP (A. thaliana); test: as above
[13] = target: T7, FAMA-nYFP (A. thaliana); test: as above
[14] = target: T8, MUTE, yeast two-hybrid fusion (Arabidopsis thaliana) (UniProt Q9M8K6); test: two-hybrid; Matchmaker Gal4 system, yeast AH109; growth on SD -Trp -Leu -His with 3-AT (1 mM) and quantitative α-galactosidase assay; with 0, 10, 50, 100 μM Stomidazolone (diminishes, dose-dependent) or SIM3* (no effect)
T8 sequence: T1 sequence

[15] = target: T9, recombinant MUTE (1-202), as used in ITC (A. thaliana) (UniProt Q9M8K6); test: ITC; Malvern PEAQ-ITC, 30 °C, PBS pH 7.4, 2% DMSO, 1 mM DTT; in presence of the analog AYSJ1061 (6); both purified
T9 sequence: T1 sequence

[16] = target: T10, recombinant MUTE (1-202), as used in BLI (A. thaliana) (UniProt Q9M8K6); test: BLI; Octet Red96, anti-GST probes, 30 °C, 1× PBS, 2% DMSO, 0.02% Tween20; in presence of the analog AYSJ1059 (5); both purified
T10 sequence: T1 sequence

[17] = target: T9, recombinant MUTE (1-202), as used in ITC (A. thaliana); test: ITC; Malvern PEAQ-ITC, 30 °C, PBS pH 7.4, 2% DMSO, 1 mM DTT; in presence of the analog AYSJ1059 (5); both purified
[18] = target: T10, recombinant MUTE (1-202), as used in BLI (A. thaliana); test: BLI; Octet Red96, anti-GST probes, 30 °C, 1× PBS, 2% DMSO, 0.02% Tween20; in presence of the analog AYSJ1061 (6); both purified

B1: SCRM, yeast two-hybrid prey (AD fusion) (protein, UniProt Q9LSE2 1-494)
chain: MGLDGNNGGGVWLNGGGGEREENEEGSWGRNQEDGSSQFKPMLEGDWFSSNQPHPQDLQMLQNQPDFRYFGGFPFNPNDNLLLQHSIDSSSSCSPSQAFSLDPSQQNQFLSTNNNKGCLLNVPSSANPFDNAFEFGSESGFLNQIHAPISMGFGSLTQLGNRDLSSVPDFLSARSLLAPESNNNNTMLCGGFTAPLELEGFGSPANGGFVGNRAKVLKPLEVLASSGAQPTLFQKRAAMRQSSGSKMGNSESSGMRRFSDDGDMDETGIEVSGLNYESDEINESGKAAESVQIGGGGKGKKKGMPAKNLMAERRRRKKLNDRLYMLRSVVPKISKMDRASILGDAIDYLKELLQRINDLHNELESTPPGSLPPTSSSFHPLTPTPQTLSCRVKEELCPSSLPSPKGQQARVEVRLREGRAVNIHMFCGRRPGLLLATMKALDNLGLDVQQAVISCFNGFALDVFRAEQCQEGQEILPDQIKAVLFDTAGYAGMI
For B1, the binding [1] was “binds”.

B2: SCRM2-cYFP (protein, UniProt Q9LPW3 1-450)
chain: MNSDGVWLDGSGESPEVNNGEAASWVRNPDEDWFNNPPPPQHTNQNDFRFNGGFPLNPSENLLLLLQQSIDSSSSSSPLLHPFTLDAASQQQQQQQQQQEQSFLATKACIVSLLNVPTINNNTFDDFGFDSGFLGQQFHGNHQSPNSMNFTGLNHSVPDFLPAPENSSGSCGLSPLFSNRAKVLKPLQVMASSGSQPTLFQKRAAMRQSSSSKMCNSESSSEMRKSSYEREIDDTSTGIIDISGLNYESDDHNTNNNKGKKKGMPAKNLMAERRRRKKLNDRLYMLRSVVPKISKMDRASILGDAIDYLKELLQRINDLHTELESTPPSSSSLHPLTPTPQTLSYRVKEELCPSSSLPSPKGQQPRVEVRLREGKAVNIHMFCGRRPGLLLSTMRALDNLGLDVQQAVISCFNGFALDVFRAEQCQEDHDVLPEQIKAVLLDTAGYAGLV
For B2, the binding [2] was “no binding (condition: with 100 µM Stomidazolone)”, the binding [3] was “no binding (condition: with 100 µM Stomidazolone)” and the binding [4] was “no binding (condition: with 100 µM Stomidazolone)”. The binding [5] was “binds”, the binding [6] was “binds” and the binding [7] was “binds”. For the same binder, the binding [8] was “no binding (condition: with 100 µM Stomidazolone)”, the binding [9] was “no binding (condition: with 100 µM Stomidazolone)” and the binding [10] was “no binding (condition: with 100 µM Stomidazolone)”. The binding [11] was “binds”, the binding [12] was “binds” and the binding [13] was “binds”.

B3: SCRM-cYFP (protein, UniProt Q9LSE2 1-494)
chain: B1 chain
B3 was tested, and the binding [5] was “binds”, the binding [6] was “binds” and the binding [7] was “binds”. The binding [11] was “binds”.

B4: SCREAM (SCRM), yeast two-hybrid fusion (protein, UniProt Q9LSE2 1-494)
chain: B1 chain
In the case of B4, the binding [14] is reported as “binds”.

B5: recombinant SCRM (1-494) (protein, UniProt Q9LSE2 1-494)
chain: B1 chain
For B5, the binding [15] was “binds”, the binding [16] was “binds” and the binding [17] was “binds”. The binding [18] was “binds”.
